Our source for the binding signal values is paper PMC12136788.

Positions count from the first letter of the chain named. The list shows a part of the results.

The labels stand for the following.
T1: UNK ZnF1-3 (human, UniProt Q9C0B0 31-174)
T1 sequence: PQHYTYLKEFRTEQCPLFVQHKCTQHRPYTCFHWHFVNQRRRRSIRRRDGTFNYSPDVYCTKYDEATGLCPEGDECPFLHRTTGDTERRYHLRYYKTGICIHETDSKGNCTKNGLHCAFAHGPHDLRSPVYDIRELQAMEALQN

B1: chr1:66480114:66480115:+_ENSMUSG00000015222_ENSMUST00000024639|mus_mus|motif|central (ssRNA)
RNA: GGGAGUUCUACAGUCCGACGAUCUGGCCUGUGACGGAUGUUCUUUAGAGAGCCACAUUUGGAUGUCACAUGGCUUAAGUCGGUCUUCUUAGUAACAAUUUGUACCUGACCCCCCUUAGGCUGGUAUUUGAUGUUGUCAGUUGACAACAGAGGAUUGAGCAUCA
B2: chr1:66463027:66463028:+_ENSMUSG00000015222_ENSMUST00000114013|mus_hu|motif|central (ssRNA)
RNA: GGGAGUUCUACAGUCCGACGAUCUUUUCUUUCAGGAGUGGAAAUUCUGCCUCUCCCGGUUUUAAAAGGCUUUUCUUUUCGGUGUUUCUCAAGAGAUGAUCUCCGAGCUUCCUUUUCAGCUUUCUCCUCUUUAGGAAUAGUUUCCAACAGAGGAUUGAGCAUCA
B3: chr11:103733960:103733961:-_ENSMUSG00000034187_ENSMUST00000103075|mus_hu|motif|central (ssRNA)
RNA: GGGAGUUCUACAGUCCGACGAUCCAUUUUAACUUCCAGUCUUCCAGGUCUAAGAAGAGCCUCAUCUAUCAGAUCUGGUCGGUUGGUCAUUCCAAUGACUAGGAUGUUGUUUAGCUGCUCCACGCCAUCAAUUUUGGACAGCAACAACAGAGGAUUGAGCAUCA
B4: chr5:130458811:130458812:+_ENSMUSG00000066735_ENSMUST00000051758|mus_hu|motif|central (ssRNA)
RNA: GGGAGUUCUACAGUCCGACGAUCUUUUCACUAUCUCCUCAGUCAACGCUGAGCUGACAGUUCUUCAGUGCUACACUCCAACGGAACUGUACAGUAAGUUCUGCAGAAAUGGAUCUAAUAUUUCUACCUUUAUUUACAAAUAUCCAACAGAGGAUUGAGCAUCA
B5: chr5:128440902:128440903:+_ENSG00000066583_ENST00000173527|hu_mus|hu_hu_hu_mus_True|18_88 (ssRNA)
RNA: GGGAGUUCUACAGUCCGACGAUCUUGAACGGUGCUGCCAAGUCCUUUAGGGUAUUGUUCCGUUAUGAUAACUGGAAUCCCUAAGAUCCGAGCUCCUUGCAACAGUCUCUGUCCCACGCUAAUAAUAUCCCCAAAGUAUUUGAUCAACAGAGGAUUGAGCAUCA
B6: 33000953_33002139_1353_CDS_ENSMUSG00000038831_ENSMUST00000042615|mouse|control|control (ssRNA)
RNA: GGGAGUUCUACAGUCCGACGAUCUCUCAGAGGCCCCUCCAUAGUGGGCACAGUGGCUGAGCUUCCCACAGUACAGGUGCAAGGGCUCGUGGGGCUGUAGACACAGCUCCGAGUUCUGGGAGAAUUCCGAACUGGAACCCGCCACAACAGAGGAUUGAGCAUCA
B7: chr5:135496556:135496557:+_ENSG00000113658_ENST00000545279|hu_hu|motif|central (ssRNA)
RNA: GGGAGUUCUACAGUCCGACGAUCGUUCCUAAACUGAACCAGAAGGCUGUGUUGUGGAUUGAAUUCAUUAUGACGAGGCACGGAUACUGGAGGUAAGACUGGACUCUCCACUCUCUUAUAGUGGUAUGGGUUGAUACAAACUUCCAACAGAGGAUUGAGCAUCA
B8: chr1:54681892:54681893:+_ENSG00000116221_ENST00000360840|hu_hu|motif|central (ssRNA)
RNA: GGGAGUUCUACAGUCCGACGAUCCCAGGCCAAAUUCUUGACACCCUCGUUACAGUCCAGGUCUGUGGUAUUCAGUUGAAACACGGGGAAAUGGAAGACACGUCCAUCCGUGCCCACGCUCUGCACCACCACGGGCUGCUCCAACAACAGAGGAUUGAGCAUCA
B9: chr10:98487791:98487792:+_ENSMUSG00000019943_ENSMUST00000020107|mus_mus|FALSE|FALSE (ssRNA)
RNA: GGGAGUUCUACAGUCCGACGAUCCAUGCAGCACGUUAAUGGCAAAUUCAAGACGAGGAGUCCACCUUGGGCUCCUGGUCUAAAUAUGCGUCCCAGCAUAUCAUGCUACCUCUUUUUACAGUAUGAAUAACUACAAACACCUGACAACAGAGGAUUGAGCAUCA
B10: chr2:48026839:48026840:+_ENSG00000116062_ENST00000540021|hu_hu|hu_hu_hu_mus_False|1_108 (ssRNA)
RNA: GGGAGUUCUACAGUCCGACGAUCAUAGUGUGCCACUAGCGUCCUAAAUCUGGAACAGUGGCGGUCAUCCGAAAACUGGCCGAUGAAAAACUUGCCCAGUGAAGUGUCCACAAAGCAAACACCAUACACACGAGUGUGGCCAGACAACAGAGGAUUGAGCAUCA
B11: chr15:12269436:12269437:+_ENSMUSG00000022200_ENSMUST00000059680|mus_mus|FALSE|FALSE (ssRNA)
RNA: GGGAGUUCUACAGUCCGACGAUCUAAAAGACUUUUUCUUCUCAUUCCACAAGCCUCUAACUGUAACCUUCCUCUCAAAGCUAAUUCAAUUAACAUACAGCCACGUAAUCCAGAUGAUAUACAGUCAUUCCAAAAUGAUGUGUACAACAGAGGAUUGAGCAUCA
B12: chr7:44244176:44244177:+_ENSG00000106636_ENST00000223369|hu_mus|FALSE|FALSE (ssRNA)
RNA: GGGAGUUCUACAGUCCGACGAUCACUGUCGCUCCGGACGUAGACAUGGCAAAGAUACUCUUGUUCUUUGACAGAAGCUCUGCUGCCUUUCCCCGAGCGUUCCACAAUCAGUUGACUUGUAAAGGUCAUGAAUUCCUGCACACUCAACAGAGGAUUGAGCAUCA
B13: chr10:33190432:33190433:-_ENSG00000150093_ENST00000302278|hu_mus|hu_hu_hu_mus_True|18_68 (ssRNA)
RNA: GGGAGUUCUACAGUCCGACGAUCUACAUUUUCCAAACCUGCAUGUGAAUAAAACCCUGGCCACAGAGCCCUAAAGCUACCCUACUGUGACUAAGAUGCUGCUGCUGUGAGCUUGGUUGUUGUGGGACCGCCUGAGUAGGAUUCCAACAGAGGAUUGAGCAUCA
B14: 184045049_184045169_3417_CDS_ENSG00000114867_ENST00000411531|human|control|control (ssRNA)
RNA: GGGAGUUCUACAGUCCGACGAUCGGGCCGUUCUCUACUCCGCUCCUCCACUUCCUUGCUGAAGCUCCGCUUGGUAGCAGGUGUCCGCGCACGAUCAAGCCGGUCCCCACGGUCCCCUCCCCGUUCACUCCGCUCUAGGCGGUCCAACAGAGGAUUGAGCAUCA
B15: chr16:94664806:94664807:+_ENSMUSG00000040785_ENSMUST00000117648|mus_hu|FALSE|FALSE (ssRNA)
RNA: GGGAGUUCUACAGUCCGACGAUCAUGAUGACCCUCAAAAUAGGCAGCAGCAUUUUUAUCUGCUCUGUCAUUGGCUACAAAAGACGGCACCACUGGUACUGAUCUUGGUAGCUGAUAUUCAGGAGAAAGGCUGGCCAAGGGUGUCAACAGAGGAUUGAGCAUCA
B16: chr1:163117127:163117128:-_ENSG00000143248_ENST00000313961|hu_hu|FALSE|FALSE (ssRNA)
RNA: GGGAGUUCUACAGUCCGACGAUCGCAGGGUUAUUAUGGAGGAAAUAACUCACAGGAUGAUUUCAUAGCCUGGCUAAAUUACUACUUGAUUAACUCCUGAUAAAACUCAGAGCGCACAAAGCGAGGCAGAGAAUCCUUUUCCAUCAACAGAGGAUUGAGCAUCA
B17: 54565288_54565408_3335_CDS_ENSG00000067248_ENST00000251636|human|control|control (ssRNA)
RNA: GGGAGUUCUACAGUCCGACGAUCAAUCUUGACAUUCACAGGUAAAGCUGCAAGGUGUUGGCCCAACGGAGUCAGUUUAGGCUCAUUUAAUUCACAAGCUCCAAUUUUUCGGAGCAAAUUCAUUGCAUUGCUGAUCACUUGGAGCAACAGAGGAUUGAGCAUCA
B18: 110450171_110450291_691_CDS_ENSMUSG00000044791_ENSMUST00000153838|mouse|control|control (ssRNA)
RNA: GGGAGUUCUACAGUCCGACGAUCCAUUAGUGCUGUUGCUGGGGGUUGCGGCAAGGCCACUGGCUCUGAUAUCUGUGCUGGUGGUGAGGGUGAUGAGGCCUGGGGAGGUGGAGGAGGUGGGGGUGGAGAUGAAGGUGGUGAGUCCAACAGAGGAUUGAGCAUCA
B19: chr2:48026839:48026840:+_ENSG00000116062_ENST00000540021|hu_hu|hu_hu_hu_mus_False|48_78 (ssRNA)
RNA: B10 RNA with U30A, G57A, G63A, G93U, G138A
B20: chr2:42509997:42509998:+_ENSG00000143924_ENST00000318522|hu_mus|hu_hu_hu_mus_True|38_68 (ssRNA)
RNA: GGGAGUUCUACAGUCCGACGAUCUCGCUGAGUCCUCUCCUCAUAAUUAAACAGGACUACCACUGAGGCAAUGAAAUAAACUAUCUCCCCUGUGGGAAGAAGGUAAACAUUCGCUCUACAGUCCUUUCCUCGAUAACCGUAUACCAACAGAGGAUUGAGCAUCA
B21: chr6:41757443:41757444:+_ENSG00000214736_ENST00000398881|hu_mus|hu_hu_hu_mus_False|38_78 (ssRNA)
RNA: GGGAGUUCUACAGUCCGACGAUCGAACCGUGCAGAGGCAACAUCUCAGCCGACACUGUGGACUCAAGGGGCAGUGGGGGGGGGUUCAGGCAAGGAGAAGAAAAGUGCUUCAGCUGCCACUCAGGUAGGAUCUUGUGGUCACAGCAACAGAGGAUUGAGCAUCA
B22: 33885606_33886921_1799_CDS_ENSG00000170248_ENST00000307296|human|control|control (ssRNA)
RNA: GGGAGUUCUACAGUCCGACGAUCGUUGGUUCCCUCUGCUCUUAAAGGCUUAUACAGUUCAUUGGAUGGUGUCCUUUGCCAACGUUCCUUAAAUUUUGCUCUUAAAUCAUUAUCGGUUGCUUCUUCUUCAUCCAACAACCUUAACAACAGAGGAUUGAGCAUCA

The test has as its target T1, UNK ZnF1-3. The experiment in a line: nsRBNS (natural sequence RNA bind-n-seq); RBNS binding buffer (assumed for nsRBNS): 25 mM Tris pH 7.5, 150 mM KCl, 3 mM MgCl2, 0.01% Triton X-100, 500 ug/ml BSA, 20 U/ml SUPERase-In, 4 C; UNK is unkempt and MSI1 is Musashi-1; names of the RNAs are library labels; protein concentration not given here; high values mean tight binding.
In the case of B1, the binding signal is 0.53 enrichment R.
B2: the binding signal amounted to 0.426 enrichment R.
B3 showed a binding signal of 0.818 enrichment R.
Next, B4: 0.527 enrichment R; B5: 0.799 enrichment R; B6: 1.43 enrichment R.
Next, B7: 1.31 enrichment R.
Next, B8: 0.909 enrichment R; B9: 0.799 enrichment R.
In turn, B10 had a binding signal of 0.968 enrichment R.
Next, B11: 0.964 enrichment R; B12: 0.701 enrichment R.
Next, B13: 0.972 enrichment R.
Next, B14: 0.975 enrichment R.
For B15, the binding signal stood at 1.25 enrichment R.
Next, B16: 1.65 enrichment R; B17: 1.08 enrichment R; B18: 1.19 enrichment R.
As to B19, the binding signal is 1.26 enrichment R.
Regarding B20, the binding signal came to 0.815 enrichment R.
Consider B21, for which the binding signal was 1.73 enrichment R.
Next, B22: 0.557 enrichment R.
